From PubChem BioAssay (NCATS)
Where “and” joins values, the source holds several entries; their conditions need not be identical. Equal entries are not always repeated. This list was built around the results that the source calls inconclusive (neither active nor inactive); the mix of calls is not that of the screen. For some assays here: Potencies beside an inconclusive call are fits to weak or partial responses and may not hold up. For some assays here: A note “side channel” means that the fit belongs to a control or component signal, not to the main read-out. Calls of active or inactive are those of the source. Unless noted, calls follow the shape of the dose curve; as a rule, active = well fitted curve in the direction sought with a large enough effect; inconclusive = small, poorly fitted or top-dose-only effect, or another doubt; inactive = no such curve, though single readings can be large; an effect the other way counts as inactive or inconclusive.

Experiments:
[1] = target: Rap guanine nucleotide exchange factor 3 (Homo sapiens) (UniProt O95398); test: Confirmatory qHTS for antagonist of cAMP-regulated guanine nucleotide exchange factor 3 (EPAC1) (AID 1645880); also: potency is read from the fitted curve at half-maximal effect; nearly all actives have a fitted effect of over 55% in size
Chain of UniProt O95398 (O95398 whole entry, looked up): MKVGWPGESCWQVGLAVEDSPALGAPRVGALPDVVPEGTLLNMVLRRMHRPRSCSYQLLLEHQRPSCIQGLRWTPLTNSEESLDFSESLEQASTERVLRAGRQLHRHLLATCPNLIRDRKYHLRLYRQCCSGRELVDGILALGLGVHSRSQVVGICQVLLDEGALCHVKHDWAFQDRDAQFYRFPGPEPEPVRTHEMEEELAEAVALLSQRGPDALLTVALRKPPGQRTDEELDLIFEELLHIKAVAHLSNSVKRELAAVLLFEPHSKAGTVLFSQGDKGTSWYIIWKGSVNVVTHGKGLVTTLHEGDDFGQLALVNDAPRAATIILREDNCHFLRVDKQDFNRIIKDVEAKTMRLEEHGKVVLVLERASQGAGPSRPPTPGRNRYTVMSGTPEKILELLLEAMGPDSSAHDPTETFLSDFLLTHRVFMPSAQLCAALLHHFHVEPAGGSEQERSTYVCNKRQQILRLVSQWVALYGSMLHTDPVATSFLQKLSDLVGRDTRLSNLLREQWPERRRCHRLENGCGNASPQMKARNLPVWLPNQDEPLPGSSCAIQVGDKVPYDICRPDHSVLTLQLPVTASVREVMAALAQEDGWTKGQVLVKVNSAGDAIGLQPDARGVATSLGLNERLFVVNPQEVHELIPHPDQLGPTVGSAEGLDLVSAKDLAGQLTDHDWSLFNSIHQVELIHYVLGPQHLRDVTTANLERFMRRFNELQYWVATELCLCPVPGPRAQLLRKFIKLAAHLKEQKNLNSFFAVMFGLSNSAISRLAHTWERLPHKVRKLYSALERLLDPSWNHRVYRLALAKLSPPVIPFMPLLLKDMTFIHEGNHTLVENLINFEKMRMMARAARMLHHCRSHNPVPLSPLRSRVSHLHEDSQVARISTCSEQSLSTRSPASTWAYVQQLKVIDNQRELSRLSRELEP
How it was run: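 Released BODIPY-GDP fluoresces less than Rap1-bound BODIPY-GDP; the signal is followed at 480/540 nm at 5-min intervals over 30 min, after 5 min at room temperature. Reactions contain 100 nM EPAC1, 250 nM RAP1B-BODIPY-GDP and 50 uM GDP; results are normalized to ATA and DMSO.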

[2] = target: Rap guanine nucleotide exchange factor 4 (Homo sapiens) (UniProt Q8WZA2); test: Confirmatory qHTS for antagonist of cAMP-regulated guanine nucleotide exchange factor 4 (EPAC2) (AID 1645885); details: activity change, negative = inhibition: at 114 µM (top of the series) unless noted; also: nearly all actives have a fitted effect of over 25% in size; also: potency is read from the fitted curve at half-maximal effect; as to activity change, negative = inhibition: % is scaled to controls: 0 for no effect and ±100 for the full control effect
Chain of UniProt Q8WZA2 (Q8WZA2 whole entry, looked up): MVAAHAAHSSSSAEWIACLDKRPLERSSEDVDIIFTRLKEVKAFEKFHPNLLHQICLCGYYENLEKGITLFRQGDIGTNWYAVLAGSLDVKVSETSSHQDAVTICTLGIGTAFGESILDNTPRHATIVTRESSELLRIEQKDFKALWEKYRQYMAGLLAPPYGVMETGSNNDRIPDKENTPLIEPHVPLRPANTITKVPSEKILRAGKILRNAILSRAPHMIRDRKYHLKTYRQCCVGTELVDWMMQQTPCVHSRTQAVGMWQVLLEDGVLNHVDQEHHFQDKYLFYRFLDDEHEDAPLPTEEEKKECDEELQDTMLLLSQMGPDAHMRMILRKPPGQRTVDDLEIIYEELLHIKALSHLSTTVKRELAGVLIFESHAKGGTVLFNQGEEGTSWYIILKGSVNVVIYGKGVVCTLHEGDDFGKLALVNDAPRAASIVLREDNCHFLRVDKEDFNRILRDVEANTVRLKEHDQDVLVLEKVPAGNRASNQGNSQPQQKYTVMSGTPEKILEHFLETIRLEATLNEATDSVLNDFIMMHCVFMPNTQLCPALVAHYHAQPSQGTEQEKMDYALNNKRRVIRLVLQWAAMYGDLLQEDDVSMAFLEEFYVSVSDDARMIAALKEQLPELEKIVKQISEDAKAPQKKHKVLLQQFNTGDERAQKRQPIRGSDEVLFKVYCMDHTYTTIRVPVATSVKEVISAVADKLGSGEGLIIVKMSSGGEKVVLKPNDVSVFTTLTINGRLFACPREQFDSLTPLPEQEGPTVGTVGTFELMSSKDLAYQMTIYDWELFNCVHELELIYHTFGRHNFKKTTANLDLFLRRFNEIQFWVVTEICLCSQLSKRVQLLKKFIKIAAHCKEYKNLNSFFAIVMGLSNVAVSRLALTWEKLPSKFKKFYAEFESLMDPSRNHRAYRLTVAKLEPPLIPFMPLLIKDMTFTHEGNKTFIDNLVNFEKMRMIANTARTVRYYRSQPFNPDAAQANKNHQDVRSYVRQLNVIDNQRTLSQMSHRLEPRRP

[3] = target: Rap guanine nucleotide exchange factor 3 (Homo sapiens) (UniProt O95398); test: Counterscreen qHTS for agonist of cAMP-regulated guanine nucleotide exchange factor 3 (EPAC1) (AID 1645889); details: EPAC1 Rap1B-BODIPY-GDP exchange, fluorescence; activation: at 154 µM (top of the series) unless noted; also: nearly all actives have a fitted effect of over 40% in size; also: potency is read from the fitted curve at half-maximal effect; as to activation: % of control where 0% means no effect
How it was run: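 Rap1B-BODIPY-GDP 250 nM + GDP 50 uM; cpds 7-pt, final 9.74 nM–152 uM (activator mode) or from 7.32 nM upwards (inhibitor mode); RT; FI 480/540 nm at 5 and 30 min, then ± cAMP, reread.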

[4] = target: DNA polymerase eta (Homo sapiens) (UniProt Q9Y253); test: qHTS for Inhibitors of Polymerase Eta: Confirmatory Assay for Cherry-picked Compounds (AID 720502); details: Pol eta primer extension, TAMRA/BHQ fluorescence, 10 min; also: potency is read from the fitted curve at half-maximal effect
Chain of UniProt Q9Y253 (Q9Y253 whole entry, looked up): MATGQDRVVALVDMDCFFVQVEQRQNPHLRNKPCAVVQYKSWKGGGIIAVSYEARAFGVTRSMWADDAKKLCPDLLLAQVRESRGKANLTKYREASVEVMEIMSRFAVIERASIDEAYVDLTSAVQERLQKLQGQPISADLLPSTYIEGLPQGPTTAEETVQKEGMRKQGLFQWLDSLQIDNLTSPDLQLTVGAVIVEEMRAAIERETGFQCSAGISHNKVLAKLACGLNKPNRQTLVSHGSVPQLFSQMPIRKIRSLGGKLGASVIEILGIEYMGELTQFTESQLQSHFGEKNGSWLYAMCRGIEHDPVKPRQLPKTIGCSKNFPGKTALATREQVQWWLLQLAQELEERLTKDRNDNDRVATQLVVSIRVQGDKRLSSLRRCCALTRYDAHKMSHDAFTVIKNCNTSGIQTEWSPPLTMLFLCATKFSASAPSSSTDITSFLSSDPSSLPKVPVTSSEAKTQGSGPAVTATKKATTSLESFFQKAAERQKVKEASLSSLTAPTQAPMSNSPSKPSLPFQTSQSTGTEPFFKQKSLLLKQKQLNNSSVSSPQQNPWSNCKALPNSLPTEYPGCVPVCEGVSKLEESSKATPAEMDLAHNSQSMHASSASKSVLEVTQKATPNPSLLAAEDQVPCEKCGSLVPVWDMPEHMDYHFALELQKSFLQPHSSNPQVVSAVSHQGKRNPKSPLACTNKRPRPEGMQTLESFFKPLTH
How it was run: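 Quenched-fluorescence replication assay: 10 nM Pol eta, 50 nM substrate final, 15 min compound preincubation at room temperature, 10 min kinetic reaction read at 525/598 nm.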

[5] = Cell Viability - MRC5 (AID 434; calls by dose curve;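 also: potency is read from the fitted curve at half-maximal effect; cells exposed to compound for 40 hours at 37 °C; potency reflects cytotoxicity seen as loss of intracellular ATP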); details: MRC5 lung fibroblast viability, qHTS
How it was run: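 AC50 values come from Hill-equation fits of intracellular ATP loss, measured by CellTiter-Glo luminescence. Normal lung fibroblasts (MRC5) had 40 hr compound treatment at 37 C, normalized between DMSO and 100 uM tamoxifen.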

[6] = target: Mitogen-activated protein kinase 10 (Mus musculus) (UniProt Q61831); test: JNK3 AlphaScreen Assay (AID 530; active = well fitted curve in either direction with a large enough effect, not every such curve was filed as active; inconclusive = small, poorly fitted or top-dose-only effect, or another doubt;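 also: kinase came from lysate of stimulated human HepG2 cells; signal reports phosphorylation of biotinylated GST-cJun 1-79 at Ser73 with 10 µM ATP; potency is read from the fitted curve at half-maximal effect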); details: JNK3 lysate, c-Jun phosphorylation; activity change, negative = inhibition: at 57.1 µM (top of the series)
How it was run: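 Kinase buffer: 20 mM Tris-HCl pH 7.6, 10 mM MgCl2, 1 mM DTT, 0.1 mM Na3VO4, 0.01% Tween-20; ATP 10 uM. Substrate biotin-GST-cJun(1-79), enzyme from activated HepG2 lysates. Detection by Ser73 phospho-antibody AlphaScreen.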

[7] = Cellular Toxicity (caspase-3) SHSY5Y (AID 657)
How it was run: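 Luminescent caspase-3/7 readout (aminoluciferin release) in SH-SY5Y cells after 16 h compound exposure in complete medium. Activity scaled between DMSO basal and 10 uM staurosporine as 100%; concentration-response fitted to Hill equation for AC50.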

[8] = Cell Viability - LYMP2-013 (AID 970); details: LYMP2-013 lymphoblastoid cells viability; activity change, negative = cytotoxic: at 92.2 µM (top of the series);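 also: cells exposed to compound for 24 h at 37 °C; 0% = DMSO only and full inhibition = tetraoctylammonium bromide control; nearly all actives have a fitted effect of over 55% in size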
How it was run: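 In complete culture medium, human lymphoblastoid cells were dosed for 24 hr at 37 C, with tetraoctylammonium bromide (6.4pM to 92 uM) as positive control. Viability reflects luciferase-based ATP signal; AC50 derived from concentration-response curves.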

[9] = target: Bile acid receptor (Homo sapiens) (UniProt Q96RI1); test: qHTS assay for small molecule agonists of farnesoid X receptor signaling (AID 588527; calls by dose curve;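 also: 0% = vehicle basal and 100% = reference agonist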); details: HEK293T FXR-UAS-bla, beta-lactamase ratio, 16 h; activation: stronger effect = higher value
How it was run: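 Read-out: beta-lactamase reporter fluorescence with CCF4 substrate in GeneBLAzer FXR-UAS-bla HEK293T cells, after 16 h compound exposure at 37 C. Response scaled between DMSO basal (0%) and chenodeoxycholic acid at 100 uM (100%).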

[10] = target: Glucocorticoid receptor (Homo sapiens) (UniProt P04150); test: qHTS assay for small molecule antagonists of glucocorticoid receptor signaling (AID 588533; active = well fitted inhibition curve with a large enough effect in the signal ratio, with a control signal flat, not every such curve was filed as active; inconclusive = small, poorly fitted or top-dose-only effect, or effect the other way, or a change in a side signal; the % refers to the signal ratio;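 also: cells stimulated with 2 nM dexamethasone as agonist; % is scaled to controls: 0 for no effect and ±100 for the full control effect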); details: HeLa MMTV-bla, GRE beta-lactamase ratio, antagonist mode, 18 h
[11] = target: Peroxisome proliferator-activated receptor gamma (Homo sapiens) (UniProt P37231); test: qHTS assay for small molecule agonists of peroxisome proliferator-activated receptor gamma signaling (AID 588536; active = well fitted curve in the direction sought with a large enough effect in the signal ratio, with a control signal flat, not every such curve was filed as active; inconclusive = small, poorly fitted or top-dose-only effect, or effect the other way, or a change in a side signal; inactive = no such curve, though single readings can be large or run the other way; the % refers to the signal ratio; also: potency is read from the fitted curve at half-maximal effect); details: HEK293 PPARg-UAS-bla, beta-lactamase ratio, 16 h; activation: at 76.7 µM (top of the series), percent of rosiglitazone response, DMSO as zero
How it was run: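 Beta-lactamase reporter read-out: CCF4 fluorescence (ex 405, em 460/530 nm) after 2 h at RT. HEK293 GeneBLAzer cells were treated for 16 h at 37 C. Hill fits gave EC50 and efficacy versus 2 uM rosiglitazone (100%) and DMSO (0%).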

[12] = target: Peroxisome proliferator-activated receptor gamma (Homo sapiens) (UniProt P37231); test: qHTS assay for small molecule antagonists of peroxisome proliferator-activated receptor gamma signaling (AID 588537; active = well fitted inhibition curve with a large enough effect in the signal ratio, with a control signal flat, not every such curve was filed as active; inconclusive = small, poorly fitted or top-dose-only effect, or effect the other way, or a change in a side signal; the % refers to the signal ratio; also: potency is read from the fitted curve at half-maximal effect;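 also: reporter cells co-stimulated with 50 nM rosiglitazone agonist during compound treatment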; as to activity, negative = inhibition: % of control where 0% means no effect); details: HEK293 PPARg-UAS-bla, beta-lactamase ratio, antagonist mode; activity, negative = inhibition: at 76.8 µM (top of the series)
How it was run: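 Cell-based beta-lactamase assay; GW9662 served as the antagonist control. Stimulation used rosiglitazone, final 50 nM, 16 h, 37 C.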

[13] = target: Vitamin D3 receptor (Homo sapiens) (UniProt P11473); test: qHTS assay for small molecule agonists of vitamin D receptor signaling (AID 588543; calls by dose curve; also: potency is read from the fitted curve at half-maximal effect); details: HEK293T VDR-UAS-bla, beta-lactamase ratio, 16 h; activation: at 76.8 µM (top of the series)
How it was run: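 β-lactamase reporter, VDR-UAS-bla HEK293T, agonist mode. Cells plated 5 h at 37 °C, compound titration 16 h at 37 °C, CCF4 dye 2 h RT, ratio 460/530 nm. Hill fit → EC50, efficacy vs 50 nM 1α,25-(OH)2D3.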

[14] = target: Retinoic acid receptor RXR-alpha (Homo sapiens) (UniProt P19793); test: qHTS assay for small molecule agonists of retinoid X receptor alpha signaling (AID 588544; calls by dose curve; also: potency is read from the fitted curve at half-maximal effect;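 as to activation: 0% = DMSO basal wells and 100% = reference agonist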); details: HEK293T RXRa-UAS-bla, beta-lactamase reporter, 18 h; activation: at 76.7 µM (top of the series)
Chain of UniProt P19793 (P19793 whole entry, looked up): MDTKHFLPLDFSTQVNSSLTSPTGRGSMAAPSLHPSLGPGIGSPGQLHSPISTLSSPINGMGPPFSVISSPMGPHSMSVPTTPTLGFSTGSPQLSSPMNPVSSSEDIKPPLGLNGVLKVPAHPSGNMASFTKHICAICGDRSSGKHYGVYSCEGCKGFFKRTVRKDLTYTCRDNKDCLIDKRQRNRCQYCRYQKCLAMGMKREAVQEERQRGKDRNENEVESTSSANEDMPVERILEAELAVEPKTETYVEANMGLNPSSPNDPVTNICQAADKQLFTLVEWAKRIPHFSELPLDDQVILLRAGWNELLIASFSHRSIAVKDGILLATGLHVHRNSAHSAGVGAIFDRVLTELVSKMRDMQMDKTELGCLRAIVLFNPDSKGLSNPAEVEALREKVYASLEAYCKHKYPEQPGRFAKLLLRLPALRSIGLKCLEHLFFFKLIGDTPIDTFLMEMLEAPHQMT

[15] = target: Thyroid hormone receptor beta (Homo sapiens) (UniProt P10828); test: qHTS assay for small molecule agonists of thyroid hormone receptor beta signaling (AID 588545; calls by dose curve; also: potency is read from the fitted curve at half-maximal effect); details: TR-UAS-bla GripTite HEK 293, beta-lactamase ratio, agonist mode, 18 h; activation: at 76.7 µM, percent of T3 response, DMSO as zero
Chain of UniProt P10828 (P10828 whole entry, looked up): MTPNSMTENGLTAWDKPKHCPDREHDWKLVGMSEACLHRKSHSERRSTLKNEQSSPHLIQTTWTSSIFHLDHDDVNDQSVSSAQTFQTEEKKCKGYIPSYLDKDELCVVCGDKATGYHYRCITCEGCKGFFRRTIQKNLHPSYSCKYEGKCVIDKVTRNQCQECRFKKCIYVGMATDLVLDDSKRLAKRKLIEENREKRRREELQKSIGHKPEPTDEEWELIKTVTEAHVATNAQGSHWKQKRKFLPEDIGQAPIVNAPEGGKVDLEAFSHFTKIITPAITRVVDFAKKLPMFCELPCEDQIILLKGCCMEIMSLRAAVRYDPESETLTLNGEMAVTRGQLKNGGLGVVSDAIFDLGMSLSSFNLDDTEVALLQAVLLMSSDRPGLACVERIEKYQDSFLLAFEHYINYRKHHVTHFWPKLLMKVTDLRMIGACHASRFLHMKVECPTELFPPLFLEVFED
How it was run: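 Efficacy and EC50 values derive from Hill fits of qHTS titration data, normalized to 10 nM T3 and DMSO-only wells. HEK 293 reporter cells were stimulated for 18 hrs at 37 C, with beta-lactamase activity measured by CCF4 fluorescence.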

[16] = target: Retinoic acid receptor RXR-alpha (Homo sapiens) (UniProt P19793); test: qHTS assay for small molecule antagonists of retinoid X receptor alpha signaling (AID 588546; active = well fitted inhibition curve with a large enough effect in the signal ratio, with a control signal flat, not every such curve was filed as active; inconclusive = small, poorly fitted or top-dose-only effect, or effect the other way, or a change in a side signal; inactive = no such curve, though single readings can be large or run the other way; the % refers to the signal ratio;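 also: cells stimulated with 9-cis-retinoic acid as agonist; % is scaled to controls: 0 for no effect and ±100 for the full control effect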); details: HEK293T RXRa-UAS-bla, beta-lactamase ratio, antagonist mode
How it was run: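 Beta-lactamase reporter inhibition, read as CCF4 fluorescence ratio (ex 405, em 460/530 nm) after 2 h at RT. HEK293T UAS-bla cells, 2500/well, were stimulated with 9-cis-RA at 500 or 100 nM final alongside test compound for 18 h at 37 C.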

[17] = qHTS assay for small molecule agonists of the antioxidant response element (ARE) signaling pathway (AID 651741; active = well fitted activation curve with a large enough effect in the signal ratio; inconclusive = small, poorly fitted or top-dose-only effect, or effect the other way, or a change in a side signal; the % refers to the signal ratio; also: potency is read from the fitted curve at half-maximal effect); details: HepG2 ARE-bla reporter, beta-lactamase FRET ratio, 16 h; activation: at 96 µM (top of the series)
How it was run: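 Agonist activity is measured as ARE-driven beta-lactamase expression in a stable HepG2 reporter line, using 16 h compound treatment at 37 C and a FRET substrate fluorescence readout after 2 h.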

[18] = qHTS assay for small molecule activators of the p53 signaling pathway (AID 651743; active = well fitted activation curve with a large enough effect in the signal ratio, not every such curve was filed as active; inconclusive = small, poorly fitted or top-dose-only effect, or a change in a side signal; the % refers to the signal ratio; also: potency is read from the fitted curve at half-maximal effect); details: HCT-116 p53RE-bla, beta-lactamase FRET ratio, 16 h; activation: stronger effect = higher value
How it was run: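 A beta-lactamase reporter under p53 response element control, stably carried by HCT-116 cells, reported pathway activation. Test compounds were applied for 16 hours at 37 C, and fluorescence was measured 2 hours after adding the B/G FRET substrate.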

[19] = qHTS assay to identify small molecules that stimulate interleukin-8 (IL-8) secretion (AID 651758; active = well fitted activation curve with a large enough effect in the signal ratio; inconclusive = small, poorly fitted or top-dose-only effect, or effect the other way, or a change in a side signal; the % refers to the signal ratio; also: 0% is about no effect); details: HTRF ratio (665/615); activation: at 92.2 µM (top of the series)
How it was run: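 Secreted IL-8 measured homogeneously by TR-FRET (two labelled anti-IL-8 antibodies, 1-3 h at room temperature) after a 16 h, 37 C compound treatment of THP-1 cells at 2000 cells/well.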

[20] = qHTS assay for cell viability of the p53RE-bla HCT-116 cell line (AID 743292); also: potency is read from the fitted curve at half-maximal effect; nearly all actives have a fitted effect of over 55% in size
How it was run: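 HCT-116 p53RE-bla cells seeded 4,000/well; 5 h at 37 C; compound (DMSO) added; 16 h at 37 C; CellTiter-Glo added, 30 min RT; luminescence read.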
Tags tell the direction and shape of the fitted curve or compound fluorescence and quenching.

## CCOC(=O)[C@]12Cc3cc(OC)ccc3[C@H]1N(C1CCCCC1)C(=O)c1ccccc12
[1]
  Potency: inconclusive: 37.9 µM [inhibitor, partial curve, poor fit]
[2]
  Potency: inconclusive: 33.8 µM [inhibitor, single point]

## CCOC(=O)[C@]12Cc3ccccc3[C@H]1N(C(C)C)C(=O)c1cc(OC)ccc12
[1]
  Potency: inconclusive: 39.8 µM [inhibitor, partial curve, poor fit]
[2]
  activity change, negative = inhibition: inactive: -28.9% [at 12.7 µM]
[3]
  Potency: inconclusive: 0.562 µM [activator, full curve, poor fit]

## CCOC(=O)[C@]12Cc3cc(Cl)ccc3[C@H]1N(CC(=O)OC)C(=O)c1ccccc12
[1]
  Potency: inconclusive: 53.6 µM [inhibitor, partial curve]
[2]
  Potency: inconclusive: 37.9 µM [inhibitor, partial curve]

## O=C1NC(=O)N(Cc2ccco2)C(=O)/C1=C/c1cccn1CCOc1ccccc1Cl
[4]
  Potency: active: 30.1 µM
[1]
  Potency: inconclusive: 42.6 µM [inhibitor, partial curve]
[2]
  Potency: inactive
[3]
  Potency: inactive

## CCN(CC)C(=O)Cn1cc(C=C2C(=O)N(C)C(=O)N(C)C2=O)c2ccccc21
[1]
  Potency: active: 79.4 µM
[3]
  activation: inconclusive: 36.9% [activator] [at 30.8 µM]

## Clc1cc(Cl)c(-c2cc(Cl)c(Cl)cc2Cl)cc1Cl
[5]
  Potency: active: 24.3 µM
[6]
  Potency: inconclusive: 31.6 µM [activator, partial curve]
[7]
  Potency: inactive
[8]
  Potency: inactive
[9]
  activation: inactive: 4.83% and inconclusive: 12.9%
[10]; activity change, negative = inhibition: at 76.8 µM (top of the series)
  activity change, negative = inhibition: inconclusive: 34.7%
[10]; at 76.8 µM (top of the series)
  activity change, negative = inhibition: inactive: 6.88%
[11]
  Potency: inconclusive: 15.8 µM [side channel, rising, full curve, poor fit]
[12]
  Potency: inconclusive: 31.6 µM [fluorescent, side channel, single point]
  activity, negative = inhibition: inconclusive: 10.4%
[13]
  Potency: inconclusive: 0.0032 µM [side channel, falling, full curve, poor fit]
[14]
  Potency: inconclusive: 15.8 µM [inhibitor, partial curve]
  activation: inconclusive: -23.4%
[15]
  Potency: inconclusive: 0.0045 µM [side channel, falling, full curve, poor fit]
[16]
  max response: inconclusive: -50.9%
[17]
  Potency: inconclusive: 75 µM [activator, single point] and inconclusive: 68.6 µM [activator, single point]
[18]
  Potency: inconclusive: 20 µM [side channel, falling, single point] and inconclusive: 79.4 µM [side channel, falling, single point]
[19]
  activation: inconclusive: 4%
[20]
  Potency: active: 44.7 µM and inconclusive: 44.7 µM [cytotoxic, partial curve]
[1]
  Potency: inconclusive: 47.8 µM [inhibitor, partial curve]
[2]
  Potency: active: 4.78 µM
[3]
  Potency: inactive
